This is one part of the list. The full chains were built here from the parent and the listed change. Inactive controls read about 0.05.
B1: TEV protease; numbered along this chain (parent)
chain: MGESLFKGPRDYNPISSSICHLTNESDGHTTSLYGIGFGPFIITNKHLFRRNNGTLVVQSLHGVFKVKDTTTLQQHLVDGRDMIIIRMPKDFPPFPQKLKFREPQREERICLVTTNFQTKSMSSMVSDTSCTFPSGDGIFWKHWIQTKDGQCGSPLVSTRDGFIVGIHSASNFTNTNNYFTSVPKNFMELLTNQEAQQWVSGWRLNADSVLWGGHKVFMVKPEEPFQPVKEATQL

Variants of: B1
Assay: raw area under fraction-flipped curve 0-4 h after induction (AUC4h, not background-subtracted), DNA-recorder readout of cleavage of the substrate (dimensionless); higher = more cleavage of the substrate by the protease variant
Conditions: temperature: 34 °C; time window: 0-4 h after rhamnose induction
Method: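 In vivo DNA recorder in E. coli TOP10(DE3) ΔrhaA at 34 °C. Each TEVp single-site mutant (parent TEVp 0) is paired with a single-site variant of the 7-mer TEVs (canonical ENLYFQ|S). The substrate sits between flexible linkers in a Bxb1-sfGFP-TEVs-SsrA fusion, so cleavage stabilises Bxb1 and speeds flipping of a recombination array, read by NGS. The value is the raw area under the fraction-flipped curve over 0-4 h after rhamnose induction (AUC4h), with ≥20 reads per time point. It is not background-subtracted; inactive controls average about 0.047.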
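Also: Bxb1 expression induced with 0.2% (w/v) L-rhamnose at OD600 near 0.5, cultures sampled hourly, flipped fraction per protease–substrate barcode pair counted by paired-end Illumina sequencing.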

Row | Variant | area with substrate ENLYFQA | area with substrate ENLYFQC | area with substrate ENLYFQD | area with substrate ENLYFQH | area with substrate ENLYFQI | area with substrate ENLYFQK | area with substrate ENLYFQL | area with substrate ENLYFQM | area with substrate ENLYFQR | area with substrate ENLYFQS | area with substrate ENLYFQV | area with substrate ENLYFQW | area with substrate ENLYFQE | area with substrate ENLYFQN | area with substrate ENLYFQP | area with substrate ENLYFQT | area with substrate ENLYFQF | area with substrate ENLYFQQ | area with substrate ENLYFQY | area with substrate ENLYFQG
1 | MGESLFKGPRDYNPISSSICHLTNESDGHTTSLYGIGFGPFIITNKHLFRRNNGTLVVQSLHGVFKVKDTTTLQWHLVDGRDMIIIRMPKDFPPFPQKLKFREPQREERICLVTTNFQTKSMSSMVSDTSCTFPSGDGIFWKHWIQTKDGQCGSPLVSTRDGFIVGIHSASNFTNTNNYFTSVPKNFMELLTNQEAQQWVSGWRLNADSVLWGGHKVFMVKPEEPFQPVKEATQL [Q75W] | 0.0669 | 0.0718 | 0.065 | 0.0674 | 0.0484 | 0.0608 | 0.0466 | 0.0638 | 0.0616 | 0.0666 | 0.0597 | 0.0748 | – | – | – | – | – | – | – | –
2 | MGESLFKGPRDYNPISSSICHLTNESDGHTTSLYGIGFGPFIITNKHLFRRNNGTLVVQSLHGVFKVKDTTTLQEHLVDGRDMIIIRMPKDFPPFPQKLKFREPQREERICLVTTNFQTKSMSSMVSDTSCTFPSGDGIFWKHWIQTKDGQCGSPLVSTRDGFIVGIHSASNFTNTNNYFTSVPKNFMELLTNQEAQQWVSGWRLNADSVLWGGHKVFMVKPEEPFQPVKEATQL [Q75E] | 0.0661 | – | – | – | – | 0.0475 | 0.0551 | – | 0.0538 | 0.0698 | 0.0259 | – | 0.0542 | 0.0594 | 0.0676 | 0.065 | – | – | – | –
3 | MGESLFKGPRDYNPISSSICHLTNESDGHTTSLYGIGFGPFIITNKHLFRRNNGTLVVQSLHGVFKVKDTTTLQQHLVDGRLMIIIRMPKDFPPFPQKLKFREPQREERICLVTTNFQTKSMSSMVSDTSCTFPSGDGIFWKHWIQTKDGQCGSPLVSTRDGFIVGIHSASNFTNTNNYFTSVPKNFMELLTNQEAQQWVSGWRLNADSVLWGGHKVFMVKPEEPFQPVKEATQL [D82L] | 0.0519 | 0.0551 | – | 0.0944 | 0.0607 | 0.0714 | – | 0.0514 | 0.0522 | 0.0561 | 0.0506 | 0.0508 | – | 0.0536 | 0.051 | – | 0.0443 | 0.0723 | 0.0398 | –
4 | MGESLFKGPRDYNPISSSICHLTNESDGHTTSLYGIGFGPFIITNKHLFRRNNGTLVVQSLHGVFKVKDTTTLQQHLVDGRDMIIIRMYKDFPPFPQKLKFREPQREERICLVTTNFQTKSMSSMVSDTSCTFPSGDGIFWKHWIQTKDGQCGSPLVSTRDGFIVGIHSASNFTNTNNYFTSVPKNFMELLTNQEAQQWVSGWRLNADSVLWGGHKVFMVKPEEPFQPVKEATQL [P89Y] | 0.0694 | 0.0683 | 0.0694 | – | – | 0.0191 | – | – | – | 0.0699 | 0.0986 | 0.0428 | 0.0326 | 0.0733 | 0.05 | 0.0602 | – | 0.0706 | 0.0606 | –
5 | MGESLFKGPRDYNPISSSICHLTNESDGHTTSLYGIGFGPFIITNKHLFRRNNGTLVVQSLHGVFKVKDTTTLQQHLVDGRDMSIIRMPKDFPPFPQKLKFREPQREERICLVTTNFQTKSMSSMVSDTSCTFPSGDGIFWKHWIQTKDGQCGSPLVSTRDGFIVGIHSASNFTNTNNYFTSVPKNFMELLTNQEAQQWVSGWRLNADSVLWGGHKVFMVKPEEPFQPVKEATQL [I84S] | 0.0689 | 0.066 | 0.0595 | 0.0584 | 0.0578 | 0.06 | 0.0516 | 0.0661 | 0.0597 | 0.0666 | – | 0.0538 | – | 0.0675 | – | 0.0725 | – | – | – | –
6 | MGESLFKGPRDYNPISSSICHLTNESDGHTTSLYGIGFGPFIITNKHLFRRNNGTLVVQSLHGVFKVKDTTTLQQWLVDGRDMIIIRMPKDFPPFPQKLKFREPQREERICLVTTNFQTKSMSSMVSDTSCTFPSGDGIFWKHWIQTKDGQCGSPLVSTRDGFIVGIHSASNFTNTNNYFTSVPKNFMELLTNQEAQQWVSGWRLNADSVLWGGHKVFMVKPEEPFQPVKEATQL [H76W] | 0.131 | – | – | 0.0777 | 0.0627 | – | – | 0.0622 | 0.0555 | 0.0806 | – | – | – | 0.0704 | – | 0.0564 | – | – | 0.071 | –
7 | MGESLFKGPRDYNPISSSICHLTNESDGHTTSLYGIGFGPFIITNKHLFRRNNGTLVVQSLHGVFKVKDTTTLQQHLVDGRDMIYIRMPKDFPPFPQKLKFREPQREERICLVTTNFQTKSMSSMVSDTSCTFPSGDGIFWKHWIQTKDGQCGSPLVSTRDGFIVGIHSASNFTNTNNYFTSVPKNFMELLTNQEAQQWVSGWRLNADSVLWGGHKVFMVKPEEPFQPVKEATQL [I85Y] | 0.056 | – | 0.0586 | – | 0.0615 | – | 0.0612 | 0.0586 | 0.0724 | 0.0606 | – | 0.0584 | 0.0376 | 0.064 | 0.0715 | 0.0747 | – | 0.0603 | 0.0519 | 0.0549
8 | MGESLFKGPRDYNPISSSICHLTNESDGHTTSLYGIGFGPFIITNKHLFRRNNGTLVVQSLHGVFKVKDTVTLQQHLVDGRDMIIIRMPKDFPPFPQKLKFREPQREERICLVTTNFQTKSMSSMVSDTSCTFPSGDGIFWKHWIQTKDGQCGSPLVSTRDGFIVGIHSASNFTNTNNYFTSVPKNFMELLTNQEAQQWVSGWRLNADSVLWGGHKVFMVKPEEPFQPVKEATQL [T71V] | 0.0884 | 0.0925 | – | 0.0746 | 0.117 | 0.0716 | 0.0503 | 0.0763 | 0.0508 | 0.091 | – | 0.0582 | 0.0612 | – | – | 0.0768 | 0.0547 | 0.0734 | 0.0872 | 0.0872
9 | MGESLFKGPRDYNPISSSICHLTNESDGHTTSLYGIGFGPFIITNKHLFRRNNGTLVVQSLHGVFKVKDTTTEQQHLVDGRDMIIIRMPKDFPPFPQKLKFREPQREERICLVTTNFQTKSMSSMVSDTSCTFPSGDGIFWKHWIQTKDGQCGSPLVSTRDGFIVGIHSASNFTNTNNYFTSVPKNFMELLTNQEAQQWVSGWRLNADSVLWGGHKVFMVKPEEPFQPVKEATQL [L73E] | 0.0556 | 0.0571 | 0.0508 | 0.0519 | 0.0432 | 0.0527 | 0.0317 | – | 0.0548 | 0.0547 | 0.0529 | – | – | – | – | 0.0514 | 0.072 | – | – | –
10 | MGESLFKGPRDYNPISSSICHLTNESDGHTTSLYGIGFGPFIITNKHLFRRNNGTLVVQSLHGVFKVKDTTTRQQHLVDGRDMIIIRMPKDFPPFPQKLKFREPQREERICLVTTNFQTKSMSSMVSDTSCTFPSGDGIFWKHWIQTKDGQCGSPLVSTRDGFIVGIHSASNFTNTNNYFTSVPKNFMELLTNQEAQQWVSGWRLNADSVLWGGHKVFMVKPEEPFQPVKEATQL [L73R] | 0.0454 | 0.0626 | – | 0.0457 | – | 0.0537 | – | – | 0.0502 | 0.0585 | – | 0.0456 | 0.0282 | – | 0.0365 | 0.0574 | – | – | 0.0513 | 0.0519

Source: the supplement of paper PMC12217912
